# This continues a long series; more values of the same kind are listed elsewhere.
# Assay: Biodistribution of 18F-labelled tracers in rats
# Format: in vivo
# Conditions: corrected for decay of 18F
# Procedure: [^18F]Fluoride, in the form of H^18F, was produced by the ^18O(p,n)^18F nuclear reaction by bombardment of ^18O-enriched water target. The aqueous [^18F]fluoride solution was added to a 2.5-mL wheaton vial containing dry acetonitrile (1 mL), Kryptofix 2.2.2 (5 mg, 13.3 μmol) and potassium carbonate (2 mg, 14.5 μmol). The solvent was evaporated under a stream of nitrogen at 90° C. with a reducing vacuum. This azeotropic drying was repeated twice by further addition of acetonitrile (2×1 mL). The tosylate precursor 2-(2-(4-(2-tosylethoxy)phenyl)-6-chloroimidazo[1,2-a]pyridin-3-yl)-N,N-diethylacetamide (2 mg, 3.6 μmol) was dissolved in acetonitrile (1 ml) and added to the dried K222.K2CO3.KF complex. Stirring and heating at 90° C. continued for 10 to 15 mins before the reaction mixture was diluted with mobile phase and purified by reverse phase HPLC on an Alltech Alltima, C18, 10μ, 250×22 mm column eluting at 10 mLs/min with 45% acetonitrile, 55% water with 0.1% TFA.
# The biodistribution of PBR132* was undertaken in SD rats and analysis up to 4 h p.i. in the brain and peripheral tissues was performed. The specificity and selectivity of the tracer were assessed by pre-treatment with PBR and Central benzodiazepine receptor (CBR) specific ligands (1 mg/kg) 5 min prior to injection of PBR132*.
# The biodistribution of PBR 147* was performed in SD rats and brain and peripheral tissues were analysised at 15, 30 min, 1, and 4 h p.i. The specificity and selectivity of the tracer was assessed by pre-treatment of the animals with the PBR ligands PK11195 and Ro 5-4864 and with Flumazenil for CBR at 1 mg/kg 5 min prior to injection of PBR 147*
# The biodistribution of PBR102* and PBR111* were performed in SD rats and brain and peripheral tissues analysed at 15, 30 min, 1, and 4 h p.i. The specificity and selectivity of the tracers were assessed by pre-treatment with the PBR ligands PK11195 and Ro 5-4864 and with Flumazenil for CBR at 1 mg/kg 5 min prior to injection of the corresponding tracers.
# The specificity and selectivity of the tracers were assessed by pre-treatment with the PBR ligands PK11195 and Ro 5-4864 and with Flumazenil for CBR at 1 mg/kg 5 min prior to injection of the corresponding tracers.
smiles,measurement,setting,value
"CCN(CC)C(=O)Cc1c(-c2ccc(OCCF)cc2)nc2ccc(Cl)cn12 [PBR102, 2-(2-(4-(2-fluoroethoxy)phenyl)-6-chloroimidazo[1,2-a]pyridin-3-yl)-N,N-diethylacetamide]",Biodistribution: Adrenals,15 min,6.66 ± 1.31 % ID/g
same,Biodistribution: Bladder,15 min,0.49 ± 0.10 % ID/g
same,Biodistribution: Blood,15 min,0.20 ± 0.04 % ID/g
same,Biodistribution: Brain,15 min,0.20 ± 0.01 % ID/g
same,Biodistribution: GIT,15 min,0.67 ± 0.06 % ID/g
same,Biodistribution: Kidney,15 min,3.26 ± 0.27 % ID/g
same,Biodistribution: Liver,15 min,0.63 ± 0.15 % ID/g
same,Biodistribution: Muscle,15 min,0.41 ± 0.02 % ID/g
same,Biodistribution: Olfactory bulbs,15 min,0.55 ± 0.07 % ID/g
same,Biodistribution: Pancreas,15 min,1.41 ± 0.09 % ID/g
same,Biodistribution: Spleen,15 min,4.48 ± 0.52 % ID/g
same,Biodistribution: Stomach,15 min,0.66 ± 0.15 % ID/g
same,Biodistribution: Testes,15 min,0.17 ± 0.01 % ID/g
same,Biodistribution: Thymus,15 min,0.55 ± 0.13 % ID/g
same,Biodistribution: Thyroid,15 min,6.28 ± 1.36 % ID/g
same,Biodistribution: Adrenals,30 min,7.92 ± 1.70 % ID/g
same,Biodistribution: Bladder,30 min,0.55 ± 0.10 % ID/g
same,Biodistribution: Blood,30 min,0.17 ± 0.02 % ID/g
same,Biodistribution: Brain,30 min,0.16 ± 0.02 % ID/g
same,Biodistribution: GIT,30 min,0.86 ± 0.13 % ID/g
same,Biodistribution: Kidney,30 min,3.25 ± 0.50 % ID/g
same,Biodistribution: Liver,30 min,0.52 ± 0.14 % ID/g
same,Biodistribution: Muscle,30 min,0.38 ± 0.03 % ID/g
same,Biodistribution: Olfactory bulbs,30 min,0.35 ± 0.01 % ID/g
same,Biodistribution: Pancreas,30 min,1.13 ± 0.26 % ID/g
same,Biodistribution: Spleen,30 min,3.88 ± 0.44 % ID/g
same,Biodistribution: Stomach,30 min,0.57 ± 0.12 % ID/g
same,Biodistribution: Testes,30 min,0.23 ± 0.03 % ID/g
same,Biodistribution: Thymus,30 min,0.65 ± 0.07 % ID/g
same,Biodistribution: Thyroid,30 min,8.77 ± 2.27 % ID/g
same,Biodistribution: Adrenals,60 min,7.31 ± 1.14 % ID/g
same,Biodistribution: Bladder,60 min,0.52 ± 0.08 % ID/g
same,Biodistribution: Blood,60 min,0.18 ± 0.01 % ID/g
same,Biodistribution: Brain,60 min,0.17 ± 0.01 % ID/g
same,Biodistribution: GIT,60 min,0.94 ± 0.05 % ID/g
same,Biodistribution: Kidney,60 min,2.72 ± 0.23 % ID/g
same,Biodistribution: Liver,60 min,0.35 ± 0.01 % ID/g
same,Biodistribution: Muscle,60 min,0.34 ± 0.04 % ID/g
same,Biodistribution: Olfactory bulbs,60 min,0.44 ± 0.02 % ID/g
same,Biodistribution: Pancreas,60 min,0.75 ± 0.11 % ID/g
same,Biodistribution: Spleen,60 min,3.42 ± 0.19 % ID/g
same,Biodistribution: Stomach,60 min,0.45 ± 0.08 % ID/g
same,Biodistribution: Testes,60 min,0.31 ± 0.03 % ID/g
same,Biodistribution: Thymus,60 min,0.77 ± 0.10 % ID/g
same,Biodistribution: Thyroid,60 min,8.24 ± 0.99 % ID/g
same,Biodistribution: Adrenals,4 hours,7.14 ± 1.04 % ID/g
same,Biodistribution: Bladder,4 hours,0.90 ± 0.07 % ID/g
same,Biodistribution: Blood,4 hours,0.21 ± 0.01 % ID/g
same,Biodistribution: Brain,4 hours,0.19 ± 0.01 % ID/g
same,Biodistribution: GIT,4 hours,1.17 ± 0.17 % ID/g
same,Biodistribution: Kidney,4 hours,1.35 ± 0.11 % ID/g
same,Biodistribution: Liver,4 hours,0.29 ± 0.02 % ID/g
same,Biodistribution: Muscle,4 hours,0.23 ± 0.03 % ID/g
same,Biodistribution: Olfactory bulbs,4 hours,0.40 ± 0.07 % ID/g
same,Biodistribution: Pancreas,4 hours,0.40 ± 0.06 % ID/g
same,Biodistribution: Spleen,4 hours,1.92 ± 0.23 % ID/g
same,Biodistribution: Stomach,4 hours,0.41 ± 0.12 % ID/g
same,Biodistribution: Testes,4 hours,0.42 ± 0.01 % ID/g
same,Biodistribution: Thymus,4 hours,0.98 ± 0.18 % ID/g
same,Biodistribution: Thyroid,4 hours,5.75 ± 0.89 % ID/g
"CCN(CC)C(=O)Cc1c(-c2ccc(OCCCF)cc2)nc2ccc(Cl)cn12 [PBR111, 2-(2-(4-(3-fluoropropoxy)phenyl)-6-chloroimidazo[1,2-a]pyridin-3-yl)-N,N-diethylacetamide]",Biodistribution: Adrenals,15 min,6.26 ± 0.94 % ID/g
same,Biodistribution: Bladder,15 min,0.60 ± 0.28 % ID/g
same,Biodistribution: Blood,15 min,0.41 ± 0.08 % ID/g
same,Biodistribution: Brain,15 min,0.27 ± 0.04 % ID/g
same,Biodistribution: GIT,15 min,1.05 ± 0.08 % ID/g
same,Biodistribution: Kidney,15 min,4.56 ± 0.34 % ID/g
same,Biodistribution: Liver,15 min,1.37 ± 0.20 % ID/g
same,Biodistribution: Muscle,15 min,0.61 ± 0.16 % ID/g
same,Biodistribution: Olfactory bulbs,15 min,0.64 ± 0.10 % ID/g
same,Biodistribution: Pancreas,15 min,1.99 ± 0.18 % ID/g
same,Biodistribution: Spleen,15 min,7.25 ± 1.57 % ID/g
same,Biodistribution: Stomach,15 min,0.82 ± 0.20 % ID/g
same,Biodistribution: Testes,15 min,0.29 ± 0.03 % ID/g
same,Biodistribution: Thymus,15 min,0.91 ± 0.17 % ID/g
same,Biodistribution: Thyroid,15 min,9.82 ± 0.74 % ID/g
same,Biodistribution: Adrenals,30 min,6.49 ± 0.93 % ID/g
same,Biodistribution: Bladder,30 min,0.68 ± 0.08 % ID/g
same,Biodistribution: Blood,30 min,0.30 ± 0.06 % ID/g
same,Biodistribution: Brain,30 min,0.17 ± 0.02 % ID/g
same,Biodistribution: GIT,30 min,1.22 ± 0.20 % ID/g
same,Biodistribution: Kidney,30 min,4.34 ± 0.52 % ID/g
same,Biodistribution: Liver,30 min,0.86 ± 0.17 % ID/g
same,Biodistribution: Muscle,30 min,0.57 ± 0.10 % ID/g
same,Biodistribution: Olfactory bulbs,30 min,0.54 ± 0.07 % ID/g
same,Biodistribution: Pancreas,30 min,1.28 ± 0.12 % ID/g
same,Biodistribution: Spleen,30 min,5.98 ± 0.63 % ID/g
same,Biodistribution: Stomach,30 min,1.06 ± 0.23 % ID/g
same,Biodistribution: Testes,30 min,0.33 ± 0.03 % ID/g
same,Biodistribution: Thymus,30 min,1.10 ± 0.35 % ID/g
same,Biodistribution: Thyroid,30 min,10.33 ± 0.99 % ID/g
same,Biodistribution: Adrenals,60 min,9.23 ± 1.25 % ID/g
same,Biodistribution: Bladder,60 min,1.01 ± 0.28 % ID/g
same,Biodistribution: Blood,60 min,0.18 ± 0.04 % ID/g
same,Biodistribution: Brain,60 min,0.13 ± 0.01 % ID/g
same,Biodistribution: GIT,60 min,1.54 ± 0.19 % ID/g
same,Biodistribution: Heart,60 min,6.72 ± 0.80 % ID/g
same,Biodistribution: Kidney,60 min,4.11 ± 0.66 % ID/g
same,Biodistribution: Liver,60 min,0.65 ± 0.09 % ID/g
same,Biodistribution: Muscle,60 min,0.44 ± 0.04 % ID/g
same,Biodistribution: Olfactory bulbs,60 min,0.54 ± 0.10 % ID/g
same,Biodistribution: Pancreas,60 min,0.92 ± 0.10 % ID/g
same,Biodistribution: Spleen,60 min,5.27 ± 0.85 % ID/g
same,Biodistribution: Stomach,60 min,0.78 ± 0.12 % ID/g
same,Biodistribution: Testes,60 min,0.40 ± 0.01 % ID/g
same,Biodistribution: Thymus,60 min,1.12 ± 0.21 % ID/g
same,Biodistribution: Thyroid,60 min,10.72 ± 2.14 % ID/g
same,Biodistribution: Adrenals,4 hours,16.46 ± 0.97 % ID/g
same,Biodistribution: Bladder,4 hours,1.20 ± 0.23 % ID/g
same,Biodistribution: Blood,4 hours,0.11 ± 0.01 % ID/g
same,Biodistribution: Brain,4 hours,0.08 ± 0.01 % ID/g
same,Biodistribution: GIT,4 hours,1.77 ± 0.12 % ID/g
same,Biodistribution: Heart,4 hours,4.38 ± 0.42 % ID/g
same,Biodistribution: Kidney,4 hours,2.32 ± 0.37 % ID/g
same,Biodistribution: Liver,4 hours,0.39 ± 0.06 % ID/g
same,Biodistribution: Muscle,4 hours,0.17 ± 0.05 % ID/g
same,Biodistribution: Olfactory bulbs,4 hours,0.41 ± 0.04 % ID/g
same,Biodistribution: Pancreas,4 hours,0.53 ± 0.09 % ID/g
same,Biodistribution: Spleen,4 hours,3.12 ± 0.37 % ID/g
same,Biodistribution: Stomach,4 hours,0.45 ± 0.06 % ID/g
same,Biodistribution: Testes,4 hours,0.57 ± 0.03 % ID/g
same,Biodistribution: Thymus,4 hours,1.65 ± 0.41 % ID/g
same,Biodistribution: Thyroid,4 hours,8.25 ± 1.10 % ID/g
